Assay results: PubChem BioAssay AID651582 (Sanford-Burnham Center for Chemical Genomics, 2012)
The other results are listed elsewhere or left out. Shown are side measurements of this screen, not its main read-out; they come without a call. Most of these compounds were active or inconclusive in the main read-out, so they are no random draw.

Test: TAG lipid buildup reduction in H9c2 cells – cell-based, uHTS, fluorescence, primary screen (AID 651582)
Settings: Nile Red lipid (TAG) fluorescence, measured here:, at 12.5 µM, cells loaded with 200 µM oleic acid

Row | Compound | DAPI nuclei signal change (viability), lower = more cytotoxic [%]
1 | CC(=O)Nc1ccc(Sc2ccc([N+](=O)[O-])o2)cc1 | -45.4
2 | COCCCn1c(C(=O)Nc2ccc3c(c2)OCO3)cc2c(=O)n3cccc(C)c3nc21 | -11.5
3 | COc1cc(C2c3cc4c(cc3OC(C)(N3CCCC3)C2C)OCO4)cc(OC)c1OC (centres undefined) | -44.4
4 | C[C@H]1CN([C@@H](C)CO)C(=O)c2cccc(NC(=O)Nc3ccc(C(F)(F)F)cc3)c2O[C@@H]1CN(C)Cc1ccc(Cl)c(Cl)c1 | -3.18
5 | CN(C)CCCN1c2ccccc2Sc2ccc(Cl)cc21 | -11.5
6 | O=C(N/N=C/c1ccc(Cl)cc1)c1sccc1OCc1ccc(F)cc1 | -28.2
7 | COc1cccc(/C=N/Nc2nc3ccccc3[nH]2)c1O | -23.9
8 | Cc1c(C#N)c(O)n(CCO)c(=O)c1N=Nc1ccc2c(c1)COC2=O | -35.4
9 | CCN(CC)S(=O)(=O)c1ccc(N2CCOCC2)c(NC(=O)c2[nH]c(C)c(C(C)=O)c2C)c1 | -3.1
10 | O=C(Nc1cccc(Cl)c1)c1nc[nH]c1C(=O)NCCN(CCNC(=O)c1[nH]cnc1C(=O)Nc1cccc(Cl)c1)CCNC(=O)c1[nH]cnc1C(=O)Nc1cccc(Cl)c1 | -1.2
11 | CC(C)(C)c1cc(Br)c(O)c(N=Nc2ccc(S(=O)(=O)N3CCOCC3)cc2)c1 | -14.9
12 | COc1ccc(-c2sc3ccc(N4CCOCC4)cc3c2C#CC(C)(C)O)cc1 | -7.65
13 | c1ccc(OCCNc2nc(NCC3CC3)nc3cc(-c4ccccc4)sc23)cc1 | 5.71
14 | COc1ccc(C2NCCc3c2[nH]c2ccccc32)cc1COc1ccc(F)cc1 (centres undefined) | -38.4
15 | CN(C)CCCNc1nc2sc3c(c2c(=O)n1CCc1ccccc1)CCCCC3 | -10.3
16 | CCOC(=O)c1[nH]c(C)c(C(=O)Nc2ccccc2C)c1C | -38.7
17 | COc1ccc(NC2=NC(=S)N(c3ccc(C)cc3)C23CCCCC3)cc1 | -28.8
18 | CC(C)(C)c1ccc(C(O)CCCN2CCC(C(O)(c3ccccc3)c3ccccc3)CC2)cc1 (centres undefined) | -9.66
19 | CCCCCC[N+](C)(C)CC/C=C1/c2ccccc2Sc2ccc(Cl)cc21 | -1.94
20 | COCc1ccc(O)c2ncccc12 | -45.5
21 | CC(C)Sc1nnc(NC(=O)c2ccco2)s1 | -38.8
22 | CC1(C)Cc2nc3sc4c(SCC(=O)NCc5ccco5)ncnc4c3cc2CO1 | -21.4
23 | CN(C)CC(O)c1ccc(C=Cc2ccc(Cl)cc2)cc1 (centres undefined) | -40.5
24 | Cc1cc(=O)oc(C)c1C(=O)Nc1cccc(F)c1 | -10.6

Row | Compound | DAPI nuclei signal change (viability), lower = more cytotoxic [%]
25 | O=C(c1ccoc1)N1CCN(c2cc(-c3cccc(F)c3)nc3cc(-c4cccc(Cl)c4)nn23)CC1 | 119
26 | CSc1ccc2c(c1)N(CCC1CCCCN1C)c1ccccc1S2 (centres undefined) | -48.6
27 | Cc1noc(C)c1COc1cccc(C(=O)OCC(=O)N2CC(=O)Nc3ccccc32)c1 | -34.9
28 | COc1cc2c3c(cccc3c1)C(=O)N(CCN1CCCC1)C2=O | -40.7
29 | CC(C)(Oc1ccc(Cl)cc1)C(=O)Nc1ccc2oc(-c3ccncc3)nc2c1 | 8.87
30 | COc1ccc(CNC(=O)OCCN2CCN(S(=O)(=O)c3ccc(C)cc3)CCC2=O)cc1 | -39.3
31 | COc1ccc(Nc2nc(Nc3ccc(OC)cc3)nc(-n3[nH]c(=O)c(C)c3C)n2)cc1 | 1.43
32 | O=[N+]([O-])c1ccccc1N/N=C/c1c[nH]c2ccccc12 | -21
33 | N#Cc1ccc(-c2cccs2)nc1SCc1cccnc1 | -30.7
34 | CC(C)(C)c1ccc(/C=N/NC(=O)Cc2c[nH]c3ccccc23)cc1 | -3.64
35 | c1ccc(-c2nc(SCc3nc4ccccc4[nH]3)c3oc4ccccc4c3n2)cc1 | -1.57
36 | O=C(c1cnn2c1NC(c1ccc(Br)cc1)CC2C(F)(F)F)N1CCN(C23CC4CC(CC(C4)C2)C3)CC1 (centres undefined) | -10.4
37 | CC1CCN(C(=O)c2ccc3c(c2NCCO)C(=O)c2ccccc2C3=O)CC1 | -15.7
38 | COc1ccc2[nH]c3c(c2c1)CCN1C(=O)C(CC(=O)NC/C=C(\C)CCC=C(C)C)C[C@H](C(=O)N(C(C)C)C(C)C)[C@@]31C (some centres undefined) | -10.6
39 | c1ccc(COc2ncnc3c2ncn3CCCNC2CCN(Cc3ccccc3)CC2)cc1 | -27.6
40 | Cc1onc(-c2ccccc2)c1C(=O)Nc1cc(C(F)(F)F)ccc1N1CCOCC1 | -19.3
41 | COc1cc(NC(=O)c2ccco2)c(OC)cc1NC(=O)CCC(=O)Nc1cccc(C)c1C | 1.37
42 | Nc1c(Cl)cc(-c2csc(N3CCCC3c3nc4cc(Cl)c(Cl)cc4n3CCCO)n2)cc1Cl (centres undefined) | -3.63
43 | Cc1ccc(C(=O)CC2(O)C(=O)N(CCc3ccccc3)c3ccc(Br)cc32)o1 (centres undefined) | -7.6
44 | COc1ccc2cc3cc(C(=O)NCC4COc5ccccc5O4)oc3nc2c1 (centres undefined) | -25.3
45 | COc1ccc(C(=O)Nc2ccc(Cl)cc2C(=O)NCc2ccco2)cc1 | -13.7
46 | COc1ccc(C(=O)NNC(=O)Cc2ccc(-c3ccccc3)cc2)cc1OC | -8.94
47 | CN1CCN(c2cc(-c3cc(O)c4ncccc4c3)ccn2)CC1 | -15
48 | CN(C)CCCn1c2c3ccccc3ccc2c2oc(=O)c3ccccc3c21 | 128

Row | Compound | DAPI nuclei signal change (viability), lower = more cytotoxic [%]
49 | CC(C)n1cnc2c(N(C)c3ccccc3)nc(N(CCN(C)C)Cc3ccccc3)nc21 | -33
50 | CN1N=C(N)c2cn(C3OC(COP(=O)(O)O)C(O)C3O)c3ncnc1c23 (centres undefined) | -34.8
51 | COc1ccc(Nc2cccc3ccccc23)cc1 | 3.61
52 | Cn1cc(/C=N/n2cnc3scc(-c4ccc(Cl)cc4)c3c2=O)c2ccccc21 | -15.7
53 | CCC(C)(C)NC(=O)C(c1ccccc1F)N(Cc1ccco1)C(=O)c1csnn1 (centres undefined) | -5.46
54 | CC(C)C[C@H]1C(=O)N2CCC[C@H]2[C@]2(O)O[C@](NC(=O)[C@@H]3C=C4c5cccc6[nH]c(Br)c(c56)CC4N(C)C3)(C(C)C)C(=O)N12 (some centres undefined) | -0.726
55 | Cc1cc(C)c(S(=O)(=O)Nc2ccc3c4c(cccc24)CC3)c(C)c1 | -37.1
56 | CCN1CCN(Cc2ccc(NC(=O)c3cc(NC(=O)c4cc(-c5ccc(OC)cc5)n[nH]4)cc(OC)c3)cc2C(F)(F)F)CC1 | -21.1
57 | COc1ccc2nc3cc([N+](=O)[O-])ccc3c(NNc3ccc([N+](=O)[O-])cc3)c2c1 | 0.915
58 | Cc1cc(N2CCN(Cc3cn(C)nc3-c3ccccc3F)CC2)cc(C)n1 | -40
59 | O=C(N/N=C/c1cc(Cl)ccc1O)c1ccncc1 | -18
60 | CCC(C)(C)NC(=O)C(c1ccc(OC)cc1)N(Cc1ccco1)C(=O)CCC(=O)Nc1cc(C)on1 (centres undefined) | -20
61 | CCCSc1ccc2nc(NC(=O)OC)[nH]c2c1 | -30.1
62 | Cc1ccc2oc(NC3=NC4(CCCC4)C4=C(CCCC4=O)N3)nc2c1 | -23.8
63 | c1cc2c(cc1C1CCCCC1)c1c3n2CCCNC3CCC1 (centres undefined) | -24.6
64 | CCOc1cc(/C=N/Nc2cc(C)nc(-n3nc(C)cc3C)n2)ccc1O | -32.1
65 | Cc1cc(C)nc(Sc2ncnc(N)c2[N+](=O)[O-])n1 | -38.2
66 | COc1ccccc1NC(=S)N=Nc1c(O)[nH]c2ccc(Br)cc12 | -23.5
67 | Cc1ccc(C(=O)OCC(=O)Nc2cccc(S(=O)(=O)NC3=NCCCCC3)c2)c(C)c1 | -45.2
68 | CCOC(=O)c1cccc(Nc2nc(-c3cccnc3)nc3ccccc23)c1 | 2.75
69 | Cc1ccc2nc3n(c(=O)c2c1)-c1cc2ccccc2cc1C(=O)NC3Cc1ccc(O)cc1 (centres undefined) | -33
70 | Cc1ccccc1OCCNc1cc(N2CC(C)NC(C)C2)ccc1[N+](=O)[O-] (centres undefined) | -17.6
71 | COc1ccc(/C=C2/CCC(CN3CCOCC3)C2=O)cc1 (centres undefined) | -44.8
72 | CC(=O)O[C@H]1C(=O)[C@]2(C)[C@H]([C@H](OC(=O)c3ccccc3)[C@]3(O)C[C@H](OC(=O)[C@H](O)[C@@H](NC(=O)c4ccccc4)c4ccccc4)C(C)=C1C3(C)C)[C@]1(OC(C)=O)CO[C@@H]1C[C@@H]2O | -36.3

Row | Compound | DAPI nuclei signal change (viability), lower = more cytotoxic [%]
73 | CCCCCc1cc(=O)oc2c(C(CCN(CC)CC)c3cc(OC)c(OC)c(OC)c3)c(OC)cc(OC)c12 (centres undefined) | -43.8
74 | COc1ccccc1CNC(=O)Nc1nc(C(N)CCc2ccccc2)cs1 (centres undefined) | -34
75 | Cc1cc(NC(=O)c2sccc2C)n(-c2nc3ccccc3[nH]2)n1 | -5.55
76 | COc1cc(NC(=O)c2nccnc2N)cc(C(=O)Nc2cccc(C(F)(F)F)c2)c1 | 13.4
77 | O=C(O)c1ccc(N/N=C/c2ccc(-c3ccc(Cl)cc3Cl)o2)cc1 | 32.1
78 | O=C(Cc1ccccc1)Nc1nc(-c2cccs2)cs1 | 0.737
79 | COCCNc1nc(NCc2ccc(NC(C)=O)cc2)c2sc(-c3ccccc3)cc2n1 | -34.4
80 | Cc1nn(-c2ccccc2)c(C)c1/C=N/NC(=O)c1cc(-c2ccccc2)n[nH]1 | -14.2
81 | CC(=O)NC(c1cc(Cl)c2cccnc2c1O)C1CC1 (centres undefined) | 5.79
82 | Cc1nn(-c2ccc([N+](=O)[O-])cc2)c2c1C(c1ccc(OC(F)F)cc1)N1C(=N2)C(=O)Nc2ccccc21 (centres undefined) | -0.725
83 | Cc1ccc(-c2cc(C(=O)N/N=C/c3c(C)nn(-c4ccccc4)c3C)[nH]n2)cc1 | -35
84 | CC1CCN(c2cc(N3CCC(C)CC3)c([N+](=O)[O-])cc2/C=C(\C#N)c2nn(-c3ccccc3)c(N)c2C#N)CC1 | -13.4
85 | CCC[C@@H](CNC)NC[C@H](Cc1ccccc1)NCCCCc1ccccc1 | -39.9
86 | COCCCn1c(SCC(=O)Nc2nc3ccccc3s2)nnc1-c1ccoc1C | -11.6
87 | O=C(Cc1ccccc1)NC(Nc1cccc2ccccc12)C(Cl)(Cl)Cl (centres undefined) | 6.86
88 | O=[N+]([O-])c1ccc(Nc2nc(N/N=C\c3ccc4c(c3)OCO4)nc(N3CCCCC3)n2)cc1 | -9.17
89 | CC1CC(C)CN(CC(=O)c2cccs2)C1 (centres undefined) | -19.2
90 | CCCc1cc(C(=O)N/N=C/c2ccc(CC)s2)c2ccccc2n1 | -25.4
91 | CC(=O)Nc1ccc(Oc2nc(-c3ccccn3)nc3ccccc23)cc1 | -20.2
92 | COC(=O)[C@]1(CC(C)C)N[C@H](c2ccc(-c3cccc(Cl)c3)cc2)[C@@H]2C(=O)N(C)C(=O)[C@@H]21 | -2.71
93 | Fc1ccc([C@@H]2CCNC[C@H]2COc2ccc3c(c2)OCO3)cc1 | -12.9
94 | CN(C)CCCNC(=O)CC1C[C@H](C(=O)N2CCCCC2)[C@@]2(CCc3ccccc3)c3[nH]c4ccccc4c3CCN2C1=O (some centres undefined) | -30.2
